Tests used:
[1] = test system: PctP-Tar (PA1608-Tar); details: read-out: EC50 by FRET ^ a; attractant response, tethering buffer pH 7.0, Hill fit
[2] = molecular target: PctC-LBD (PA4307) (Pseudomonas aeruginosa, UniProt Q9HW93); assay: biochemical
[3] = molecular target: PctA-LBD (PA4309) (Pseudomonas aeruginosa, UniProt G3XD24); assay: biochemical
[4] = molecular target: PctP-LBD (PA1608) (Pseudomonas aeruginosa, UniProt Q9I3B3); details: two symmetric sites, negative cooperativity, stronger site (second site weaker)
[5] = molecular target: TlpQ-LBD (PA2654) (Pseudomonas aeruginosa, UniProt Q9I0I4); assay: biochemical

Row | SMILES | EC50 [1] | further results
1 | O=c1[nH]cnc2c1ncn2[C@@H]1O[C@H](CO)[C@@H](O)[C@H]1O [Inosine] | 8.2 ± 1.9 µM | –
2 | Nc1nc2c(ncn2[C@@H]2O[C@H](CO)[C@@H](O)[C@H]2O)c(=O)[nH]1 [Guanosine] | 0.4 ± 0.05 µM | –
3 | COC(=O)CCCN [Methyl 4-aminobutyrate] | – | Kd [2]: 129 ± 2 µM
4 | Nc1ncnc2[nH]cnc12 [Adenine] | 39.5 ± 4.5 µM | –
5 | NCCCCC(=O)O [5-Aminovalerate] | – | Kd [2]: 28 ± 2 µM
6 | NCCC[C@H](N)C(=O)O [L-Ornithine] | – | Kd [3]: 7.1 ± 0.5 µM
7 | O=c1[nH]cnc2nc[nH]c12 [Hypoxanthine] | 1.6 ± 0.2 µM | KD by ITC ^ b [4]: 43 µM
8 | NCCc1ccccc1 [2-Phenylethylamine] | – | Kd [5]: 410 ± 12 µM
9 | Nc1nc2[nH]cnc2c(=O)[nH]1 [Guanine] | 0.6 ± 0.1 µM | –
10 | Nc1ncnc2c1ncn2[C@@H]1O[C@H](CO)[C@@H](O)[C@H]1O [Adenosine] | 3.9 ± 0.8 µM | –
11 | NCCc1ccc(O)cc1 [Tyramine] | – | Kd [5]: 100 ± 7 µM
